Measurements from a collection of fitness landscapes (doi:10.1016/j.celrep.2020.107928).
Whole data set: some 81,000 sequences, median “one-hybrid fitness for binding NBS DNA” near -0.1, cut for the highest 2% near 0.36. Some of the results follow.

B1: Caulobacter ParB omega fusion; a variant is named by its letters at X, in order, B8GW30 (parent)
chain: MESVVVGEPGMSEGRRGLGRGLSALLGEVDAAPAQAPGEQLGGSREAPIEILQRNPDQPRRTFREEDLEDLSNSIREKGVLQPILVRPSPDTAGEYQIVAGERAWRAAQRAGLKTVPIMVRELDDLAVLEIGIIENVQRADLNVLEEALSYKVLMEKFERTQENIAQTIGKSXSHVANXMRLLXLPDEVQSYLVSGELTAXHARAIAAAADPVALAKQIIEGGLSVRETEALARKAPNLSAGKSKGGRPPRVKDTDTQALESDLSSVLGLDVSIDHRGSTGTLTITYATLEQLDDLCNRLTRGI

Variants of: B1
Experiment: one-hybrid fitness for binding NBS DNA (the Noc-binding site; scaled: cognate 1, non-cognate 0); higher = stronger binding
Settings: with NBS DNA site
Procedure, shortened: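 In E. coli USO, a HIS3 reporter with its site placed 19 bp from the promoter was used to select Caulobacter ParB variants randomised at four specificity codons. Growth lasted 48 hours at 37°C on histidine-free M9 containing 0.1 mM IPTG and 5 mM 3-AT. Fitness was taken as the log change in variant-to-wild-type read ratio from Illumina sequencing of pre- and post-selection plasmids, rescaled between the non-cognate and cognate sites.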

| Variant | one-hybrid fitness for binding NBS DNA |
| --- | --- |
| SVWG | ≤ 0.2 |
| AFVD | ≤ 0.2 |
| HAFE | ≤ 0.2 |
| SGLI | ≤ 0.2 |
| QHDD | ≤ 0.2 |
| SLIF | ≤ 0.2 |
| THKQ | ≤ 0.2 |
| PWPI | ≤ 0.2 |
| PQMT | ≤ 0.2 |
| EEHL | ≤ 0.2 |
| SFCC | ≤ 0.2 |
| HNIT | ≤ 0.2 |
| WKRK | ≤ 0.2 |
| GAFC | ≤ 0.2 |
| GQGC | ≤ 0.2 |
| IKNY | ≤ 0.2 |
| PKPL | ≤ 0.2 |
| LHHL | ≤ 0.2 |
| IGKS | ≤ 0.2 |
| SNLL | ≤ 0.2 |
| MAPS | ≤ 0.2 |
| VPHR | ≤ 0.2 |
| RNYL | ≤ 0.2 |
| DTRF | ≤ 0.2 |

| Variant | one-hybrid fitness for binding NBS DNA |
| --- | --- |
| CYHF | ≤ 0.2 |
| EGML | ≤ 0.2 |
| EPTY | ≤ 0.2 |
| GNRL | ≤ 0.2 |
| WIGR | ≤ 0.2 |
| SWIG | ≤ 0.2 |
| ATVV | ≤ 0.2 |
| YWWL | ≤ 0.2 |
| HCQF | ≤ 0.2 |
| ICSA | ≤ 0.2 |
| PINR | ≤ 0.2 |
| ERSD | ≤ 0.2 |
| GLAA | ≤ 0.2 |
| DLHC | ≤ 0.2 |
| GSII | ≤ 0.2 |
| YWFR | ≤ 0.2 |
| PSTE | ≤ 0.2 |
| GLVE | ≤ 0.2 |
| NVKR | ≤ 0.2 |
| NDRN | ≤ 0.2 |
| YMQK | ≤ 0.2 |
| KHNC | ≤ 0.2 |
| RIHR | 0.477 |
| CMNY | ≤ 0.2 |

| Variant | one-hybrid fitness for binding NBS DNA |
| --- | --- |
| RHVT | ≤ 0.2 |
| GGES | ≤ 0.2 |
| KLVF | ≤ 0.2 |
| EMVM | ≤ 0.2 |
| QCHW | ≤ 0.2 |
| YMPC | ≤ 0.2 |
| DIVR | ≤ 0.2 |
| TKCR | ≤ 0.2 |
| EGVD | ≤ 0.2 |
| RYEC | ≤ 0.2 |
| EDYT | ≤ 0.2 |
| NYHP | ≤ 0.2 |
| VDLR | ≤ 0.2 |
| CHPA | ≤ 0.2 |
| IREP | ≤ 0.2 |
| RFKS | 0.444 |
| HFTW | ≤ 0.2 |
| DHYY | ≤ 0.2 |
| PVNY | ≤ 0.2 |
| GGRE | ≤ 0.2 |
| SDHV | ≤ 0.2 |
| WCAK | ≤ 0.2 |
| TDPS | ≤ 0.2 |
| WVFT | ≤ 0.2 |

| Variant | one-hybrid fitness for binding NBS DNA |
| --- | --- |
| GVWG | ≤ 0.2 |
| SFKT | ≤ 0.2 |
| YTNM | ≤ 0.2 |
| FTQR | ≤ 0.2 |
| QYCC | ≤ 0.2 |
| YKTN | ≤ 0.2 |
| RSWF | ≤ 0.2 |
| RHDQ | ≤ 0.2 |
| QSWW | ≤ 0.2 |
| RKWD | ≤ 0.2 |
| GLSP | ≤ 0.2 |
| VLYC | ≤ 0.2 |
| CNFR | ≤ 0.2 |
| RKVQ | ≤ 0.2 |
| LSTP | ≤ 0.2 |
| RGNP | ≤ 0.2 |
| NQTT | ≤ 0.2 |
| DYWL | ≤ 0.2 |
| IYKS | ≤ 0.2 |
| QCRY | 0.637 |
| CSTG | ≤ 0.2 |
| NSIV | ≤ 0.2 |
| TCQD | ≤ 0.2 |
| AQHT | ≤ 0.2 |

| Variant | one-hybrid fitness for binding NBS DNA |
| --- | --- |
| VRQR | 0.265 |
| QLPY | ≤ 0.2 |
| SYAG | ≤ 0.2 |
| VSLV | ≤ 0.2 |
| RDNA | ≤ 0.2 |
| VQPL | ≤ 0.2 |
| TGLA | ≤ 0.2 |
| HHGC | ≤ 0.2 |
| KYTG | ≤ 0.2 |
| FKLS | ≤ 0.2 |
| PQQV | ≤ 0.2 |
| YIGR | ≤ 0.2 |
| DLRT | ≤ 0.2 |
| RVHV | ≤ 0.2 |
| WFVF | ≤ 0.2 |
| VLIT | ≤ 0.2 |
| TGKT | ≤ 0.2 |
| VLSP | ≤ 0.2 |
| DVFT | ≤ 0.2 |
| LFPT | ≤ 0.2 |
| EQGR | ≤ 0.2 |
| TQEI | ≤ 0.2 |
| VEDF | ≤ 0.2 |
| HSYC | ≤ 0.2 |

| Variant | one-hybrid fitness for binding NBS DNA |
| --- | --- |
| RRAY | 0.405 |
| RLLA | ≤ 0.2 |
| TNQW | ≤ 0.2 |
| LTAT | ≤ 0.2 |
| ITVF | ≤ 0.2 |
| TYNW | ≤ 0.2 |
| YVAV | ≤ 0.2 |
| PEIC | ≤ 0.2 |
| LWIS | ≤ 0.2 |
| HTLG | ≤ 0.2 |
| GAQS | ≤ 0.2 |
| QHPY | ≤ 0.2 |
| RPYN | ≤ 0.2 |
| YMYF | ≤ 0.2 |
| TDES | ≤ 0.2 |
| VTPW | ≤ 0.2 |
| MHGG | ≤ 0.2 |
| PPKL | ≤ 0.2 |
| INIE | ≤ 0.2 |
| KTYT | ≤ 0.2 |
| DQAS | ≤ 0.2 |
| KKTF | ≤ 0.2 |
| LNFG | ≤ 0.2 |
| TEAR | ≤ 0.2 |

| Variant | one-hybrid fitness for binding NBS DNA |
| --- | --- |
| TSLW | ≤ 0.2 |
| EWDK | ≤ 0.2 |
| MSQT | ≤ 0.2 |
| LILR | ≤ 0.2 |
| SRKN | ≤ 0.2 |
| VCYG | ≤ 0.2 |
| TNVS | ≤ 0.2 |
| GTNP | ≤ 0.2 |
| VLHG | ≤ 0.2 |
| PMYR | ≤ 0.2 |
| RTQN | ≤ 0.2 |
| EFAV | ≤ 0.2 |
| VYLC | ≤ 0.2 |
| TGWR | ≤ 0.2 |
| ESDL | ≤ 0.2 |
| GDYY | ≤ 0.2 |
| YTCA | ≤ 0.2 |
| WKNT | ≤ 0.2 |
| PYVR | ≤ 0.2 |
| PPVS | ≤ 0.2 |
| APTM | ≤ 0.2 |
| QPYS | ≤ 0.2 |
| FADW | ≤ 0.2 |
| AIQF | ≤ 0.2 |

| Variant | one-hybrid fitness for binding NBS DNA |
| --- | --- |
| GSDA | ≤ 0.2 |
| KHFR | ≤ 0.2 |
| TCPR | ≤ 0.2 |
| ETEM | ≤ 0.2 |
| NFYR | ≤ 0.2 |
| RKTA | 0.315 |
| YSKV | ≤ 0.2 |
| FMMS | ≤ 0.2 |
| MVTR | ≤ 0.2 |
| LTHY | ≤ 0.2 |
| QWMW | ≤ 0.2 |
| RYKY | 0.306 |
| CLYR | ≤ 0.2 |
| PRLI | ≤ 0.2 |
| RGET | ≤ 0.2 |
| LKTI | ≤ 0.2 |
| FSLG | ≤ 0.2 |
| CRSS | ≤ 0.2 |
| NDSC | ≤ 0.2 |
| TIQD | ≤ 0.2 |
| NNEG | ≤ 0.2 |
| NISG | ≤ 0.2 |
| CKWS | ≤ 0.2 |
| RHPV | ≤ 0.2 |

| Variant | one-hybrid fitness for binding NBS DNA |
| --- | --- |
| PAGV | ≤ 0.2 |
| YYPK | ≤ 0.2 |
| RFFR | ≤ 0.2 |
| FITR | ≤ 0.2 |
| CLSL | ≤ 0.2 |
| HRHV | ≤ 0.2 |
| LEQP | ≤ 0.2 |
| WAPA | ≤ 0.2 |
| EYYT | ≤ 0.2 |
| RDVL | ≤ 0.2 |
| YRHR | ≤ 0.2 |
| HQRR | ≤ 0.2 |
| FSNC | ≤ 0.2 |
| ASDC | ≤ 0.2 |
| KRRA | 0.524 |
| IRPW | ≤ 0.2 |
| IRTW | ≤ 0.2 |
| HGPR | ≤ 0.2 |
| LPLV | ≤ 0.2 |
| STFQ | ≤ 0.2 |
| QPFC | ≤ 0.2 |
| RATS | 0.433 |
| RFYP | ≤ 0.2 |
| DSLS | ≤ 0.2 |

| Variant | one-hybrid fitness for binding NBS DNA |
| --- | --- |
| RGVQ | ≤ 0.2 |
| SDCT | ≤ 0.2 |
| NKPQ | ≤ 0.2 |
| WSTN | ≤ 0.2 |
| NRGS | ≤ 0.2 |
| KSCS | ≤ 0.2 |
| KAYS | ≤ 0.2 |
| VDVY | ≤ 0.2 |
| GDYN | ≤ 0.2 |
| CSMC | ≤ 0.2 |
| CSGC | ≤ 0.2 |
| RQWF | ≤ 0.2 |
| RNDC | ≤ 0.2 |
| QQLD | ≤ 0.2 |
| KFQV | ≤ 0.2 |
| HPAL | ≤ 0.2 |
| ELGR | ≤ 0.2 |
| SFLR | ≤ 0.2 |
| PRPF | ≤ 0.2 |
| FFDS | ≤ 0.2 |
| TQNG | ≤ 0.2 |
| WNRG | ≤ 0.2 |
| TGAM | ≤ 0.2 |
| CLFV | ≤ 0.2 |

| Variant | one-hybrid fitness for binding NBS DNA |
| --- | --- |
| IVCG | ≤ 0.2 |
| LSTT | ≤ 0.2 |
| LTCP | ≤ 0.2 |
| TVNW | ≤ 0.2 |
| YYCS | ≤ 0.2 |
| MRFC | ≤ 0.2 |
| PDWE | ≤ 0.2 |
| SPQS | ≤ 0.2 |
| VPTR | ≤ 0.2 |
| PWVT | ≤ 0.2 |
| IDTC | ≤ 0.2 |
| VNTH | ≤ 0.2 |
| ANCC | ≤ 0.2 |
| LWQE | ≤ 0.2 |
| RFER | ≤ 0.2 |
| AVLW | ≤ 0.2 |
| RHYS | 0.376 |
| GKQV | ≤ 0.2 |
| QNLQ | ≤ 0.2 |
| TSMA | ≤ 0.2 |
| QCEW | ≤ 0.2 |
| WPSF | ≤ 0.2 |
| WAYS | ≤ 0.2 |
| YVER | ≤ 0.2 |

| Variant | one-hybrid fitness for binding NBS DNA |
| --- | --- |
| SGCI | ≤ 0.2 |
| HPTN | ≤ 0.2 |
| QCFD | ≤ 0.2 |
| TQHP | ≤ 0.2 |
| FRRH | ≤ 0.2 |
| NETN | ≤ 0.2 |
| PAYI | ≤ 0.2 |
| KVKC | ≤ 0.2 |
| SNIN | ≤ 0.2 |
| NFYF | ≤ 0.2 |
| HSTI | ≤ 0.2 |
| RGPW | ≤ 0.2 |
| HTRI | ≤ 0.2 |
| EMPG | ≤ 0.2 |
| TLTF | ≤ 0.2 |
| RKMQ | ≤ 0.2 |
| ATTI | ≤ 0.2 |
| SQFS | ≤ 0.2 |
| DAHP | ≤ 0.2 |
| TCTE | ≤ 0.2 |
| RCCP | ≤ 0.2 |
| AARC | ≤ 0.2 |
| YARR | ≤ 0.2 |
| CHLE | ≤ 0.2 |

| Variant | one-hybrid fitness for binding NBS DNA |
| --- | --- |
| RSNG | ≤ 0.2 |
| RSFY | ≤ 0.2 |
| RAVK | ≤ 0.2 |
| MCGR | ≤ 0.2 |
| WYGL | ≤ 0.2 |
| INAK | ≤ 0.2 |
| ASGA | ≤ 0.2 |
| WNTP | ≤ 0.2 |
| SYPC | ≤ 0.2 |
| QKLK | ≤ 0.2 |
| GNND | ≤ 0.2 |
| WKNN | ≤ 0.2 |
| IMSR | ≤ 0.2 |
| RDRP | ≤ 0.2 |
| EDYP | ≤ 0.2 |
| ACLF | ≤ 0.2 |
| HLRR | ≤ 0.2 |
| ISIF | ≤ 0.2 |
